# By IC50 is meant the dose at which the fit gives 50% viability; a limit (>, <) means that the fit lies beyond the doses tested. For AUC the same curve is integrated over the 256-fold range of doses and scaled to a fraction; values near 1 show little effect. For part of these data: Any top dose called inferred was calculated from the reported fits. For part of these data: An entry number marks a drug with two screens in the source, which often give different values.
# What was measured:
# Test in all cases: Viability of human cancer cell lines after 72 h of drug (GDSC screen)
# [1] = compound: NC(=O)Nc1sc(-c2ccc(F)cc2)cc1C(N)=O [TPCA-1]; details: top dose 20 µM
# Procedure: (§1)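 Human cancer cell lines in 384-well plates, medium with 10% serum, drug for 72 h over a 256-fold dose range (nine 2-fold or five 4-fold steps up to the top dose). Adherent lines were fixed and stained with the nucleic acid dye Syto60, suspension lines read with resazurin; signal relative to control wells, capped at 0 and 100%. One two-parameter sigmoid per drug and line, fitted in a mixed model over all curves with the slope shared within a line.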
# [2] = compound: C[C@@H](N)c1ccc(C(=O)Nc2ccnc3[nH]ccc23)cc1 [Y-39983]; details: top dose 20 µM; top dose inferred
# Procedure: as §1
# [3] = compound: CC(C)CC(=O)Nc1n[nH]c2c1CN(C(=O)C1CCN(C)CC1)C2(C)C [PHA-793887]; details: top dose 10.24 µM
# Procedure: as §1
# [4] = compound: C/C(=C\c1csc(C)n1)[C@@H]1C[C@@H]2O[C@]2(C)CCC[C@H](C)[C@H](O)[C@@H](C)C(=O)C(C)(C)[C@@H](O)CC(=O)O1 [Epothilone B]; details: top dose 0.032 µM; top dose inferred
# Procedure: as §1
# [5] = compound: CCCS(=O)(=O)Nc1ccc(F)c(C(=O)c2c[nH]c3ncc(Cl)cc23)c1F [PLX4720]; details: top dose 10 µM
# Procedure: as §1
# [6] = screen: GDSC drug entry 1371, top dose inferred
Cell Line,AUC [1],IC50 [1] [µM],AUC [2],IC50 [2] [µM],AUC [3],IC50 [3] [µM],AUC [4],IC50 [4] [µM],AUC ([5]; screen: GDSC drug entry 1036),IC50 ([5]; screen: GDSC drug entry 1036) [µM],"AUC [5, 6]","IC50 [5, 6] [µM]"
"Hs683 (glioma, adherent)",0.955,> 20,0.988,> 20,0.933,> 10.2,0.468,0.00163,0.921,> 10,0.969,> 10
"Hs766T (pancreas, adherent)",0.983,> 20,0.979,> 20,0.98,> 10.2,0.966,> 0.032,0.937,> 10,0.98,> 10
"Hs939-T (melanoma, adherent)",0.967,> 20,0.966,> 20,0.984,> 10.2,0.918,> 0.032,0.747,3.45,0.793,5.06
"Hs940-T (melanoma, adherent)",0.984,> 20,0.984,> 20,0.902,> 10.2,0.508,0.00211,,,0.862,> 10
"Hs-578-T (breast, adherent)",0.987,> 20,0.975,> 20,0.987,> 10.2,0.903,> 0.032,0.978,> 10,0.986,> 10
"HuCCT1 (biliary tract, adherent)",0.787,9.81,0.966,> 20,0.73,3.14,0.543,0.00265,0.941,> 10,0.959,> 10
"HuH-7 (liver, adherent)",0.942,> 20,0.973,> 20,0.986,> 10.2,0.685,0.00657,0.957,> 10,0.98,> 10
"HuO9 (osteosarcoma, adherent)",0.947,> 20,0.983,> 20,0.774,4.46,0.976,> 0.032,0.905,> 10,0.96,> 10
"HuO-3N1 (osteosarcoma, adherent)",0.925,> 20,0.87,> 20,0.962,> 10.2,0.923,> 0.032,0.933,> 10,0.973,> 10
"HuP-T3 (pancreas, adherent)",0.828,16.3,0.962,> 20,0.85,> 10.2,0.583,0.00357,0.983,> 10,0.974,> 10
"HuP-T4 (pancreas, adherent)",0.532,1.54,0.896,> 20,0.449,0.46,0.506,0.00208,0.954,> 10,0.934,> 10
"IGR-1 (melanoma, adherent)",0.782,7.31,0.975,> 20,0.99,> 10.2,0.374,0.000944,0.908,> 10,0.927,> 10
"IHH-4 (thyroid, semi-adherent)",0.953,> 20,0.992,> 20,0.46,0.508,0.231,0.000409,0.862,5.94,0.862,5.92
"IPC-298 (melanoma, adherent)",0.822,11.5,0.977,> 20,0.938,> 10.2,0.842,,0.904,> 10,0.929,> 10
"J82 (bladder, adherent)",0.979,> 20,0.98,> 20,0.988,> 10.2,0.44,0.00137,,,0.987,> 10
"JEG-3 (urogenital system, adherent)",0.991,> 20,0.991,> 20,0.935,> 10.2,0.626,0.00428,0.983,> 10,0.99,> 10
"JHH-1 (liver, adherent)",0.782,9.11,0.985,> 20,0.759,3.87,0.656,0.00564,0.985,> 10,0.983,> 10
"JHH-2 (liver, adherent)",0.858,18.5,0.978,> 20,0.788,4.87,0.875,> 0.032,0.957,> 10,0.969,> 10
"JHH-4 (liver, adherent)",0.697,4.45,0.762,7.15,0.98,> 10.2,0.558,0.00288,0.936,> 10,0.946,> 10
"JHH-6 (liver, adherent)",0.928,> 20,0.927,> 20,0.952,> 10.2,0.483,0.00179,,,0.982,> 10
"JHH-7 (liver, adherent)",0.938,> 20,0.982,> 20,0.972,> 10.2,0.306,0.000594,0.982,> 10,0.977,> 10
"JHU-011 (head and neck, adherent)",0.786,8.47,0.959,> 20,0.625,1.4,0.239,0.000358,0.893,> 10,,
"JHU-022 (head and neck, adherent)",0.973,> 20,0.962,> 20,0.941,> 10.2,0.944,> 0.032,0.973,> 10,0.974,> 10
"JIMT-1 (breast, adherent)",0.933,> 20,0.978,> 20,0.937,> 10.2,0.365,0.00082,0.908,> 10,0.955,> 10

Cell Line,AUC [1],IC50 [1] [µM],AUC [2],IC50 [2] [µM],AUC [3],IC50 [3] [µM],AUC [4],IC50 [4] [µM],AUC ([5]; screen: GDSC drug entry 1036),IC50 ([5]; screen: GDSC drug entry 1036) [µM],"AUC [5, 6]","IC50 [5, 6] [µM]"
"K2 (melanoma, adherent)",0.962,> 20,0.982,> 20,0.957,> 10.2,0.839,0.0317,0.776,5.25,0.561,0.962
"KMH-2 (thyroid, adherent)",0.955,> 20,0.982,> 20,0.899,> 10.2,0.41,0.00117,0.989,> 10,0.982,> 10
"KMRC-1 (kidney, adherent)",0.97,> 20,0.964,> 20,0.987,> 10.2,0.858,0.029,0.987,> 10,,
"KMRC-20 (kidney, adherent)",0.97,> 20,0.973,> 20,0.989,> 10.2,0.84,0.0225,0.972,> 10,0.988,> 10
"KON (head and neck, adherent)",0.986,> 20,0.983,> 20,0.983,> 10.2,0.203,0.00027,0.96,> 10,0.952,> 10
"KOSC-2 (head and neck, adherent)",0.91,> 20,0.97,> 20,0.94,> 10.2,0.578,0.0033,,,0.929,> 10
"KP-2 (pancreas, adherent)",0.966,> 20,0.985,> 20,0.759,3.85,0.372,0.000863,0.904,> 10,0.946,> 10
"KP-3 (pancreas, adherent)",0.816,13.9,0.935,> 20,0.752,3.97,0.656,0.00591,0.969,> 10,0.938,> 10
"KP-4 (pancreas, adherent)",0.954,> 20,0.985,> 20,0.816,5.39,0.344,0.000752,,,0.89,> 10
"KU-19-19 (bladder, adherent)",0.986,> 20,0.964,> 20,0.912,> 10.2,0.984,> 0.032,0.934,> 10,0.985,> 10
"KYSE-50 (oesophagus, adherent)",0.897,> 20,0.959,> 20,0.824,5.42,0.296,0.000564,0.981,> 10,0.989,> 10
"KYSE-70 (oesophagus, adherent)",0.96,> 20,0.975,> 20,0.968,> 10.2,0.708,0.00822,,,0.985,> 10
"KYSE-140 (oesophagus, adherent)",0.821,13.6,0.938,> 20,0.677,2.14,0.426,,0.905,> 10,,
"KYSE-150 (oesophagus, adherent)",0.886,> 20,0.968,> 20,0.886,> 10.2,0.353,0.000799,0.981,> 10,0.988,> 10
"KYSE-180 (oesophagus, adherent)",0.856,15,0.889,> 20,0.835,6.32,0.34,0.000733,,,0.93,> 10
"KYSE-220 (oesophagus, adherent)",0.831,13.6,0.982,> 20,0.771,4.13,0.44,0.00136,0.979,> 10,0.984,> 10
"KYSE-270 (oesophagus, adherent)",0.911,> 20,0.933,> 20,0.744,2.81,0.274,0.000513,,,0.99,> 10
"KYSE-410 (oesophagus, adherent)",0.961,> 20,0.957,> 20,0.852,8.7,0.413,0.00114,0.983,> 10,0.978,> 10
"KYSE-450 (oesophagus, adherent)",0.757,6.52,0.939,> 20,0.561,0.932,0.244,0.000386,0.975,> 10,0.987,> 10
"KYSE-510 (oesophagus, adherent)",0.947,> 20,0.981,> 20,0.94,> 10.2,0.094,0.00013,0.953,> 10,0.974,> 10
"KYSE-520 (oesophagus, adherent)",0.953,> 20,0.981,> 20,0.943,> 10.2,0.731,0.0116,0.955,> 10,0.979,> 10
"LC-1-sq (lung squamous cell carcinoma, adherent)",0.951,> 20,0.983,> 20,0.877,> 10.2,0.745,0.0115,0.985,> 10,0.982,> 10
"LCLC-97TM1 (large cell lung carcinoma, adherent)",0.427,0.774,0.943,> 20,0.267,0.129,0.31,0.000553,0.903,> 10,0.845,8.25
